The other results are listed elsewhere or left out.

The subject of this assay is HSkMC (human skeletal muscle cells). The assay is described as follows: cytotoxicity call (relative viability < 0.9). The following applies: 10 µM.
As to `COc1ccc(S(=O)(=O)N(C)C[C@H]2OCCCC[C@@H](C)Oc3ccc(NC(=O)CCC(F)(F)F)cc3C(=O)N([C@H](C)CO)C[C@@H]2C)cc1`, the cytotoxicity call is “inactive”.

`C[C@@H]1CCCCO[C@@H](CN(C)C(=O)C2CCCCC2)[C@@H](C)CN([C@@H](C)CO)C(=O)c2cc(NC(=O)Nc3ccc4c(c3)OCO4)ccc2O1`: the cytotoxicity call is “inactive”.

On to `OCC1OC(Oc2ccc(O)cc2)C(O)C(O)C1O` (stereo not given), for which the cytotoxicity call was “inactive”.

With `CN1CCN(C(=O)C[C@@H]2CC[C@@H]3[C@H](COC[C@@H](O)CN3C(=O)Nc3cc(Cl)cc(Cl)c3)O2)CC1`, the cytotoxicity call was “inactive”.

On to `CCS(=O)(=O)Nc1ccc2c(c1)C(=O)N(C)[C@@H]1CC[C@H](CC(=O)NCCCN3CCOCC3)O[C@H]1CO2`, for which the cytotoxicity call is “inactive”.

Consider `C[C@@H]1CN([C@@H](C)CO)C(=O)c2cc(NS(C)(=O)=O)ccc2O[C@@H]1CN(C)Cc1ccc2c(c1)OCO2`, for which the cytotoxicity call is “inactive”.

Turning to `C=CCC[C@@H](Cc1ccc(F)cc1)C(=O)OC[C@@H](NC(=O)[C@H](CC=C)CC(=O)N(CCO)Cc1ccccc1)C(C)(C)C`, the cytotoxicity call was “inactive”.

On to `CCCN(C)C[C@@H]1OCCCC[C@H](C)Oc2ccc(NC(=O)CCC(F)(F)F)cc2C(=O)N([C@@H](C)CO)C[C@@H]1C`, for which the cytotoxicity call was “inactive”.

For the compound `C[C@@H]1CN([C@H](C)CO)C(=O)c2cccc(NC(=O)c3cnccn3)c2O[C@H]1CN(C)Cc1ccc(C(=O)O)cc1`, the cytotoxicity call was “inactive”.

As for `COc1ccc(-c2ccc3n(c2=O)C[C@@H]2[C@@H](CO)[C@H](C(=O)NCC4CC4)[C@H]3N2S(C)(=O)=O)cc1`, the cytotoxicity call is “inactive”.

Consider `CN1N=C(N)c2cn([C@@H]3O[C@H](COP(=O)(O)O)[C@@H](O)[C@H]3O)c3ncnc1c23`, for which the cytotoxicity call was “inactive”.

With `COc1cccc(C#Cc2ccc3c(c2)O[C@H](CN(C)C(=O)CN2CCOCC2)[C@@H](C)CN([C@H](C)CO)S3(=O)=O)c1`, the cytotoxicity call was “inactive”.

`C[C@H](CO)N1C[C@H](C)[C@H](CN(C)S(=O)(=O)c2ccccc2)OCCCC[C@H](C)Oc2ccc(NC(=O)c3ccccc3)cc2C1=O`: the cytotoxicity call is “inactive”.

As to `O=C(Cn1cc(COc2ccc3ccccc3c2)nn1)NS(=O)(=O)c1ccccc1OC(F)(F)F`, the cytotoxicity call was “inactive”.

With `C[C@H]1CN([C@@H](C)CO)C(=O)c2ccccc2-c2ccccc2CO[C@@H]1CN(C)S(=O)(=O)c1ccc(C(F)(F)F)cc1`, the cytotoxicity call is “inactive”.

In the case of `C[C@@H]1CN([C@H](C)CO)C(=O)Cc2cc(NC(=O)CCCCCC(=O)Nc3ccccc3N)ccc2O[C@H]1CN(C)C(=O)Nc1ccc(C(F)(F)F)cc1`, the cytotoxicity call was “inactive”.

As to `CN1CCN(C(=O)C[C@@H]2CC[C@@H]3[C@H](COC[C@@H](O)CN3S(=O)(=O)c3cccc(Cl)c3)O2)CC1`, the cytotoxicity call is “inactive”.

For `COC(=O)c1cc(C)cc(=O)o1`, the cytotoxicity call is “inactive”.

For `CCCCc1nn(-c2ccccc2C(F)(F)F)c(=O)n1Cc1ccc(-c2ccccc2S(=O)(=O)NC(=O)c2sccc2C)cc1`, the cytotoxicity call is “inactive”.

For `CN1CCN(C(=O)C[C@H]2CC[C@@H]3[C@H](COc4ccc(NC(=O)c5cccs5)cc4C(=O)N3C)O2)CC1`, the cytotoxicity call was “inactive”.

Consider `COC(=O)CCCCCCC(=O)Nc1ccc([C@H]2O[C@@H](CSc3nc(-c4ccccc4)c(-c4ccccc4)o3)C[C@H](c3ccc([N+](=O)[O-])cc3)O2)cc1`, for which the cytotoxicity call was “inactive”.

`O=C(C[C@@H]1C=C[C@@H](NC(=O)Nc2ccc3c(c2)OCO3)[C@H](CO)O1)NCCCN1CCOCC1`: the cytotoxicity call was “inactive”.

As to `CC(C)NC(=O)Nc1ccc2c(c1)CC(=O)N([C@@H](C)CO)C[C@@H](C)[C@@H](CN(C)Cc1ccc(-c3ccccc3)cc1)O2`, the cytotoxicity call is “inactive”.

Regarding `C[C@@H]1CN([C@@H](C)CO)C(=O)c2c(c3ccccc3n2C)-c2ccccc2CO[C@H]1CN(C)C(=O)NC1CCCCC1`, the cytotoxicity call was “inactive”.

Consider `COc1ccc(S(=O)(=O)N(C)C[C@@H]2Oc3ncc(-c4ccncc4)cc3C(=O)N([C@@H](C)CO)C[C@H]2C)cc1`, for which the cytotoxicity call is “inactive”.

In the case of `Cc1ccc(S(=O)(=O)N(C)C[C@@H]2OCCCC[C@@H](C)Oc3ccc(NC(=O)CCC(F)(F)F)cc3C(=O)N([C@@H](C)CO)C[C@H]2C)cc1`, the cytotoxicity call is “inactive”.

In the case of `C[C@@H]1CCCCO[C@@H](CN(C)Cc2ccc(C(F)(F)F)cc2)[C@@H](C)CN([C@@H](C)CO)C(=O)c2cc(NC(=O)Nc3cccc4ccccc34)ccc2O1`, the cytotoxicity call was “inactive”.

Take `C[C@@H]1CN([C@@H](C)CO)C(=O)c2cccc(NS(=O)(=O)c3ccccc3)c2O[C@@H]1CN(C)Cc1ccc(Oc2ccccc2)cc1`: the cytotoxicity call was “inactive”.

Take `C[C@H](CO)N1C[C@H](C)[C@@H](CN(C)C(=O)Cc2ccncc2)Oc2cc(-c3cncnc3)ccc2S1(=O)=O`: the cytotoxicity call is “inactive”.

`CO[C@@H]1CN(C)C(=O)c2ccc(NS(=O)(=O)c3ccccc3C)cc2OC[C@@H](C)N(S(C)(=O)=O)C[C@H]1C`: the cytotoxicity call was “inactive”.

On to `O=C(O)c1cc(-c2ccccc2)nc2ccccc12`, for which the cytotoxicity call was “inactive”.

Regarding `CO[C@@H]1CN(C)C(=O)c2cc(NC(=O)c3cc(C)on3)ccc2OC[C@@H](C)N(C(=O)C2CCC2)C[C@H]1C`, the cytotoxicity call was “inactive”.

For `C[C@H]1Cc2c(N)nn(C)c2NC1=O`, the cytotoxicity call was “inactive”.

Turning to `C[C@@H]1CN([C@@H](C)CO)C(=O)Cc2cc(N(C)C)ccc2O[C@H]1CN(C)S(=O)(=O)c1cn(C)cn1`, the cytotoxicity call was “inactive”.

For the compound `Cc1nn(C)c(C)c1CN`, the cytotoxicity call is “inactive”.

For the compound `C[C@H]1CN([C@@H](C)CO)C(=O)c2cc(NS(=O)(=O)c3ccc(F)cc3)ccc2O[C@H]1CN(C)C(=O)Nc1cccc2ccccc12`, the cytotoxicity call was “inactive”.

Turning to `CCO[C@@H]1OC(C(=O)N2CCN(Cc3ccc4c(c3)OCO4)CC2)=C[C@H](C)[C@H]1CCCOC(=O)NCCCCCC(=O)NO`, the cytotoxicity call was “inactive”.

As to `C[C@H]1CCCCO[C@@H](CN(C)Cc2ccc(C(=O)O)cc2)[C@@H](C)CN([C@@H](C)CO)C(=O)c2cc(NC(=O)C3CCCCC3)ccc2O1`, the cytotoxicity call is “inactive”.

`Cc1cc(C(=O)Nc2cccc3c2O[C@@H](CN(C)Cc2ccncc2)[C@@H](C)CN([C@@H](C)CO)C3=O)n(C)n1`: the cytotoxicity call is “inactive”.

Turning to `C[C@H]1CN([C@@H](C)CO)C(=O)c2cc(NC(=O)Cc3ccccc3)ccc2O[C@H]1CN(C)Cc1ccc(C(F)(F)F)cc1`, the cytotoxicity call is “inactive”.
